# Hit rate of the full screen: of about 50,000 compounds, about 800 (1.6%) showed an effect of 50% or more. This is one part of the list.
# Target: Bcl-2-like protein 10 (Homo sapiens) (UniProt Q9HD36)
# Assay: TR3 peptide-Bcl-B binding displacers, biochemical primary FP assay, phenotype converters (AID 1240);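 further: 0% = Bcl-B with tracer peptide and DMSO and 100% = tracer peptide lacking Bcl-B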
# Conditions: GST-Bcl-B / FITC-TR3 peptide fluorescence polarization; stronger effect = higher value; compound at 3.75 mg/L
# Chain of UniProt Q9HD36 (Q9HD36 whole entry, looked up): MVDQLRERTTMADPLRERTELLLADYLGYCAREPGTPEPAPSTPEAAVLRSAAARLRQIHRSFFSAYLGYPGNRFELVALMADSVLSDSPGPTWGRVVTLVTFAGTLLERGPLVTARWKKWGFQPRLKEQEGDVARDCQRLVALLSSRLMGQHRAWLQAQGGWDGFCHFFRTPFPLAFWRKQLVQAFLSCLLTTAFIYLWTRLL
row,SMILES,displacement [%]
1,COc1cc(/C=C2\C(=O)NC(=O)N(c3ccc(Cl)cc3)C2=O)ccc1OCc1ccc(C(=O)O)cc1,-51.8
2,CC(=O)c1ccc(Oc2cc(-c3ccccc3)nc(-c3ccccc3)n2)cc1,-4.5
3,COc1ccc(OC)c(N(CC(=O)N2CCCC2)S(C)(=O)=O)c1,1.7
4,C=C(C)c1cccc(C(C)(C)NC(=O)N2CCN(C/C=C/c3ccccc3)CC2)c1,10
5,O=C(NCc1ccncc1)c1ccc(Br)o1,9.8
6,Cn1c(-c2ccc(C=O)s2)nc2c3ccccc3c3ccccc3c21,15.4
7,Cc1ccccc1CNC(=O)CN(c1cccc([N+](=O)[O-])c1)S(=O)(=O)c1ccccc1,-2.2
8,CC(=O)C(Sc1ccc([N+](=O)[O-])cc1)C(C)=O,0.5
9,Clc1ccccc1-n1ncnc1-c1cccc(Br)c1,-1.3
10,CCOC(=O)C1=C(C)N=c2s/c(=C/c3ccc(I)o3)c(=O)n2C1c1ccccc1OC (stereo not given),14.5
11,CC(=O)c1ccc(N2C(=O)c3c(Cl)c(Cl)c(Cl)c(Cl)c3C2=O)cc1,15.1
12,CN(C)CCC(=O)c1ccc(O)cc1,3.9
13,Cc1ccc(C(=O)Nc2c(Cl)cccc2Cl)cc1[N+](=O)[O-],-1.9
14,CC(C)(C)C1=C2OCC3COC2(O3)C(C(C)(C)C)=C(O)C1=O (stereo not given),5.6
15,COc1ccc(N(CC(=O)NCc2ccccc2)S(=O)(=O)c2ccccc2)cc1Cl,2.6
16,COC(=O)C1=NNC2C(=O)N(c3cccc(Cl)c3C)C(=O)C12 (stereo not given),11.5
17,COc1ccc(C(CC(=O)C(C)C)C2C(=O)c3ccccc3C2=O)cc1 (stereo not given),-7.3
18,CCOc1ccc(C(O)c2cnc(C(C)C)n2C)cc1 (stereo not given),-0.7
19,CC(C)Oc1ccc(C(=O)Nc2cccc3c2C(=O)c2ccccc2C3=O)cc1,9.6
20,CCOC(=O)C1=C(O)/C(=C/c2ccc(O)cc2)SC1=Nc1ccc([N+](=O)[O-])cc1,-9.8
21,Cc1ccc(OCC(=O)NCCCN(C)C)c(Br)c1,-9.2
22,CN(C1=NC(=O)/C(=C\C=C\c2ccccc2)S1)c1ccc(O)cc1,11

row,SMILES,displacement [%]
1,Cc1nn(-c2ccccc2)c2c1C(c1ccc([N+](=O)[O-])cc1)C(C#N)=C(N)O2 (stereo not given),1.4
2,O=c1c2c(nc3cc(-c4cccc(Cl)c4)[nH]n13)CCC2,0.6
3,O=S(=O)(O)c1ccc(NS(=O)(=O)c2cccc3cccnc23)cc1,23
4,Cc1ccc(NC2=CC(c3ccc4c(c3)OCO4)N(c3ccc(C)cc3)C2=O)cc1 (stereo not given),19.1
5,COc1ccc(N2C(=O)C(Cl)=C(Nc3ccccc3F)C2=O)cc1,-5
6,COc1cc2c(cc1NC(=O)c1ccccc1[N+](=O)[O-])oc1ccccc12,0.9
7,Cc1ccc(C)c(NCc2cccnc2)c1,3.2
8,O=C(NCc1cccs1)c1nn2c(C(F)(F)F)cc(-c3ccco3)nc2c1Cl,-11.6
9,CCOC(=O)c1c(-c2ccccc2)csc1NC(=O)c1ccc(C)cc1,-5.7
10,COc1ccccc1Nc1nc(N2CCOCC2)ncc1F,6.7
11,CCCC(=O)Nc1ccc(O)c(-c2nc3cc(C)ccc3o2)c1,10.6
12,CC(=O)Nc1ccc(NS(=O)(=O)c2cccc([N+](=O)[O-])c2)cc1,12
13,NC1=NC(=O)/C(=C/c2ccc(Cl)cc2)S1,57.4
14,CC(C)CN1C(=O)c2ccc(C(=O)Nc3ccccc3O)cc2C1=O,14.5
15,Cc1ccc(S(=O)(=O)NCCNc2ccc([N+](=O)[O-])cc2Cl)cc1,10.7
16,COC(=O)c1c(NC(=O)CC2SC(N)=NC2=O)sc2c1CCCC2 (stereo not given),-19.7
17,CCOC(=O)C1=C(C)NC2=C(C(=O)c3ccccc32)C1c1ccc(OC)c(OC)c1 (stereo not given),0.7
18,O=C1C=CC(=O)N1c1cccc(Cl)c1,16.4
19,O=[N+]([O-])c1ccc(-c2ccc(C(=S)N3CCCCC3)o2)cc1,6.6
20,CCCCC1CCC(C(=O)Nc2nc3ccccc3n2C)CC1 (stereo not given),-9.1
21,COc1ccc(N2C(=O)/C(=C\c3ccc(-c4ccccc4Cl)o3)SC2=S)cc1,15.9
22,O=C(Cc1ccccc1)Nc1ccc2c(c1)oc1ccccc12,-4

row,SMILES,displacement [%]
1,C#CCOc1nc(OCC#C)nc(OCC#C)n1,13.9
2,CC1=C(C(=O)Nc2ccccc2)C(c2cccs2)C(C#N)=C(SCC(=O)c2ccc(F)cc2)N1 (stereo not given),7.2
3,O=C1SC(Nc2ccc(-c3ccccc3)cc2)C(=O)N1c1ccccc1 (stereo not given),-3.2
4,COc1ccccc1CC(=O)N1CCN(c2cccc(Cl)c2)CC1,-1.8
5,O=C(NC(=S)N1CCOCC1)c1ccc(Br)cc1,5.8
6,CC1=NN(c2ccccc2)C(=O)/C1=C/c1cccc(OC2CSC2)c1,7
7,Cc1c(Cl)cccc1NC(=O)Cn1cnc([N+](=O)[O-])n1,11.8
8,Cn1cccc1CN1CCN(C(=O)c2cccs2)CC1,-2.6
9,CCN(CC)CN1C(=O)C(=O)/C(=C(\O)c2ccc(Cl)cc2)C1c1ccccc1F (stereo not given),-3.3
10,O=C(Nc1ncc(Cc2ccc(Cl)cc2Cl)s1)c1ccc([N+](=O)[O-])cc1,3.4
11,CCN(CC)c1ccc(Nc2nc(-c3c(C)nc4sccn34)cs2)cc1,-16.4
12,COc1ccccc1OCCOc1ccccc1/C=C1/SC(=S)N(C)C1=O,24.9
13,CCN(CC)C(=O)CSc1nc2ccccc2s1,-4.5
14,O=C(CSc1nnnn1-c1ccccc1)Nc1ccccc1,-0.3
15,Cc1ccccc1OCC(=O)Nc1ccc(Cl)cc1C(F)(F)F,9.2
16,O=C(O)C1CCCCC1C(=O)Nc1cccnc1 (stereo not given),-11.6
17,O=C(N/N=C\c1cc([N+](=O)[O-])ccc1N1CCOCC1)c1ccccn1,-17.6
18,CCOc1ccc(N2C(=O)CC(NCc3ccc(S(N)(=O)=O)cc3)C2=O)cc1 (stereo not given),1.8
19,N#Cc1c(N)nc2sc(C(=O)Nc3ccccc3)c(N)c2c1-c1ccco1,6.5
20,COc1ccc(C2/C(=C(\O)c3ccc(Cl)cc3)C(=O)C(=O)N2CCCn2ccnc2)cc1 (stereo not given),0.8
21,COC(=O)C1=C(C(=O)OC)N(c2ccccc2)/C(=C2/C(=S)C(C)(C)Nc3ccccc32)S1,8.3
22,COC(=O)c1ccc(NC(=O)c2ccc(OC)cc2)cc1,-1.9

row,SMILES,displacement [%]
1,O=C(COC(=O)c1cc2ccccc2o1)c1ccccc1,-13.5
2,CCOC(=O)c1c(C)nc2ccc(Cl)cn12,4.5
3,CCCCNC(=O)c1nn2cc(Br)cnc2c1Br,-5.4
4,CCCCNCCCCOc1cccc(OC)c1,4.8
5,O=c1oc(-c2ccccc2)nc2c1cnn2-c1ccccc1,3.9
6,Cc1ccc(NC(=O)c2c(NC(=O)C(F)(F)F)sc3c2CCC3)c(C)c1,-9.2
7,O=c1c2ccccc2[nH]c(=S)n1Cc1ccccc1,-8.4
8,COc1cc(/C=c2\sc3nc4c(C)cccc4n3c2=O)ccc1O,29.5
9,Cn1cc(/C=C2/SC(=O)N(c3ccccc3)C2=O)c2ccccc21,14.8
10,Cc1ccc(C(C)C)c(OCC(O)CN2CCCCCC2)c1 (stereo not given),-10.1
11,CC(/C=C/c1ccc2c(c1)OCO2)=N/NC(=O)COc1ccc(C)cc1,9.6
12,O=C(NCCc1cccc(C(F)(F)F)c1)C(=O)Nc1ccccc1F,-14.7
13,COc1ccc2c(C)c(Cl)c(=O)oc2c1,13.4
14,COc1ccc(OC)c(NC(=O)COc2c(C)cccc2C)c1,8.2
15,O=C(O)CC(Cc1ccccc1)C(=O)O (stereo not given),-1.9
16,COc1cc(C(=O)N/N=C/c2ccc(C)o2)cc(OC)c1OC,-9.2
17,CCc1nc(NC(=O)NS(=O)(=O)c2ccccc2C(=O)OC)nc(OC)n1,2.3
18,COc1ccccc1CC(=O)Nc1cc(Cl)ccc1OC,11.3
19,C=CCC(CC=C)(NC(=O)/C=C/c1ccccc1)c1ccccc1,-12.8
20,O=C1C(Cc2ccc(O)cc2)NC(=S)N1c1ccccc1 (stereo not given),3.9
21,Cc1ccc(S(=O)(=O)NC(=O)N2CCN(c3ccc(F)cc3)CC2)cc1,-1.3
22,O=C(/C=C/c1ccccc1)NC(=S)Nc1ccc(NC(=O)c2ccccc2)cc1,4.6

row,SMILES,displacement [%]
1,O=C(Nc1ccc(S(=O)(=O)Nc2nccs2)cc1)c1ccc(Cl)cc1,4.5
2,CC1=C(C(N)=O)C(c2ccc(C)cc2)N=C(SCc2ccc(F)cc2)N1 (stereo not given),-7.8
3,COc1ccccc1-c1c(C(F)(F)F)oc2c(CN3CCC(C)CC3)c(O)ccc2c1=O,-3.9
4,C/C(=N\NC(=O)c1cc(C)[nH]n1)c1ccc2ccccc2c1,-8
5,COc1ccc(Cl)cc1C(=O)Nc1ccc(OC(F)(F)F)cc1,0.4
6,CC(=O)Nc1ccc(C(=O)Nc2ccccc2C(=O)O)cc1,2.6
7,CC(C)=C1C2CCC1C(C(=O)NCCC(c1ccccc1)c1ccccc1)C2C(=O)O (stereo not given),-1.7
8,Cc1ccc(C(=O)N/C(=C/c2cccnc2)c2nc3ccccc3[nH]2)cc1,6.5
9,Cc1ccccc1OCC(=O)O/N=C(\N)c1ccc(Br)cc1,8
10,CCN(CC)C(=O)C1=CC2([N+](=O)[O-])CN(CC(=O)O)CC([N+](=O)[O-])(C1)C2 (stereo not given),-11.2
11,O=C(O)Cn1c(O)c(/C=C2\C=Nc3ccccc32)sc1=S,-106
12,CC(=O)Nc1ccc(S(=O)(=O)Nc2ccc(Cl)c(Cl)c2)cc1,-1.1
13,CC1=NN(c2cccc(C(=O)O)c2)C(=O)/C1=C\c1ccc(-c2ccc(C)cc2[N+](=O)[O-])o1,7.5
14,CCCC(=O)Nc1ccc(NC(=O)COc2ccc(Cl)cc2Cl)cc1,1.6
15,CC(C)(C)c1ccc(-c2n[nH]c(=S)o2)cc1,4.6
16,COc1ccccc1/C=C1\SC(N2CCOCC2)=NC1=O,14
17,CC(C)CC(=O)N1CCN(Cc2cccc(F)c2)CC1,-8.9
18,Cc1cccc(CC2SC(=Nc3ccc(Cl)cc3)NC2=O)c1 (stereo not given),1.9
19,COc1ccc(-n2c(-c3cccc(C)c3[N+](=O)[O-])n[nH]c2=S)cc1,11.3
20,COc1ccccc1-c1c(C(F)(F)F)oc2cc(OC(=O)c3ccco3)ccc2c1=O,14.5
21,CCOC(=O)c1c(C)oc2cc(Cl)c(OC)c(OC)c12,27.3
22,CCOc1ccccc1NC(=O)c1c(NC(=O)CCC(=O)O)sc2c1CCCCC2,-5.8
